From patent US5610271A, “Kappa receptor selective opioid peptides” (Torrey Pines Institute for Molecular Studies, priority 1995, dated 1997)
At least one compound was matched to its structure with a doubt left. Square brackets hold non-standard residues; d marks the D form. Peptide text beside a SMILES is read from it. d2Nal = N[C@H](Cc1ccc2ccccc2c1)C(=O)O; dCha = N[C@H](CC1CCCCC1)C(=O)O; dNle = CCCC[C@@H](N)C(=O)O

Biological target: T1, κ receptor (Cavia porcellus, UniProt P41144)
T1 construct: tissue homogenates prepared from guinea pig brains (cortex and cerebellum); tissue Harlan Bioproducts for Science (Indianapolis, Ind.); host or cells: guinea pig brain, cortex and cerebellum, crude membrane homogenate
T1 sequence (P41144 whole entry): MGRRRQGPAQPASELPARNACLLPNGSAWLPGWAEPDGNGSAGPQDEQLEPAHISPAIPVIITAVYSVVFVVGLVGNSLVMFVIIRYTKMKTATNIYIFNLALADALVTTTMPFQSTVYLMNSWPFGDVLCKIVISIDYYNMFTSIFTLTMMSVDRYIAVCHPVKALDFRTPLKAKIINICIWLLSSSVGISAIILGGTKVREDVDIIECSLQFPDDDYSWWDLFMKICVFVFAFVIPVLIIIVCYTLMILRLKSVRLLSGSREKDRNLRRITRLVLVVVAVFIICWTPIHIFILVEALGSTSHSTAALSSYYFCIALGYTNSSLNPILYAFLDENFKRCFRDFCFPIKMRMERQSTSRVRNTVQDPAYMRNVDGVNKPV
Assay: Radioreceptor assay selective for the kappa receptor (inhibition of [3H]-U69,593 binding)
Conditions: 3 nM [3H]-U69,593, guinea pig brain (cortex and cerebellum) homogenates, 2.5 hr at 25° C., average SD ±20%
Protocol: Guinea pig brains, frozen in liquid nitrogen, were obtained from Harlan Bioproducts for Science (Indianapolis, Ind.). Frozen brains were thawed, the cerebella and cortex were removed and weighed. The combined cortex and cerebella were homogenized in 40 ml Tris-HCl buffer (50 mM, pH 7.4, 4° C.) containing 100 μM phenylmethylsulfonyl fluoride (PMSF) 5 mM MgCl2 and 1 mg/ml bovine serum albumin (BSA) and centrifuged (39000×g) (Model J2-HC; Beckman Instruments, Fullerton, Calif.) for 10 min at 4° C. The pellets were resuspended in fresh Tris-HCl buffer and incubated at 37° C. for 40 min. Following incubation, the suspensions were centrifuged as above, the resulting pellets resuspended in 100 volumes of Tris buffer and the suspensions combined. Membrane suspensions were prepared and used in the same day. Protein content of the crude homogenates ranged from 0.1-0.3 mg/ml as determined using the method described by Bradford in Anal. Biochem. 72:248-254 (1976), which is incorporated herein by reference.
Binding assays were carried out in polypropylene tubes. […] Assay tubes were incubated for 2.5 hr at 25° C. The reaction was terminated by filtration through GF-B filters (Wallac, Gaithesburg, Md.). The filters were subsequently washed with 6 ml Tris-HCl buffer at 4° C. Bound radioactivity was counted on a Beta-plate Liquid Scintillation Counter (Life Technologies, Gaithersburg, Md.) and expressed in counts per minute (cpm). Standard curves were prepared using 0.05-6300 nM naloxone (Sigma, St. Louis, Mo.). Competitive inhibition assays were performed as above using serial dilutions of the peptide mixtures. IC50 values were then calculated using the software […] (ISI, San Diego, Calif.).

Row | SMILES | IC50 (Table 2) [nM] | IC50 (Table 3) [nM]
1 | CCCC[C@@H](NC(=O)[C@@H](Cc1ccc2ccccc2c1)NC(=O)[C@H](N)Cc1ccccc1)C(=O)N[C@H](CCCNC(=N)N)C(N)=O [SEQ ID NO. 6, (D)Phe-(D)NapAla-(D)Nle-(D)Arg] (H-[dF][d2Nal][dNle][dR]-NH2; N-terminus and C-terminus assumed) | 0.2 | 
2 | CCCC[C@@H](NC(=O)[C@@H](Cc1ccc2ccccc2c1)NC(=O)[C@H](N)Cc1ccccc1)C(=O)N[C@H](CC1CCCCC1)C(N)=O [SEQ ID NO. 7, (D)Phe-(D)NapAla-(D)Nle-(D)ChAla] (H-[dF][d2Nal][dNle][dCha]-NH2; N-terminus and C-terminus assumed) | 8 | 
3 | N=C(N)NCCC[C@@H](NC(=O)[C@H](Cc1c[nH]c2ccccc12)NC(=O)[C@@H](Cc1ccc2ccccc2c1)NC(=O)[C@H](N)Cc1ccccc1)C(N)=O [SEQ ID NO. 8, (D)Phe-(D)NapAla-Trp-(D)Arg] | 7580 | 
4 | NC(=O)[C@@H](CC1CCCCC1)NC(=O)[C@H](Cc1c[nH]c2ccccc12)NC(=O)[C@@H](Cc1ccc2ccccc2c1)NC(=O)[C@H](N)Cc1ccccc1 [SEQ ID NO. 9, (D)Phe-(D)NapAla-Trp-(D)ChAla] (H-[dF][d2Nal]W[dCha]-NH2; N-terminus and C-terminus assumed) | 25000 | 
5 | CC[C@@H](C)[C@@H](NC(=O)[C@@H](Cc1ccc2ccccc2c1)NC(=O)[C@H](N)Cc1ccccc1)C(=O)N[C@H](CCCNC(=N)N)C(N)=O [SEQ ID NO. 10, (D)Phe-(D)NapAla-(D)Ile-(D)Arg] (H-[dF][d2Nal][dI][dR]-NH2; N-terminus and C-terminus assumed) | 0.7 | 
6 | CC[C@@H](C)[C@@H](NC(=O)[C@@H](Cc1ccc2ccccc2c1)NC(=O)[C@H](N)Cc1ccccc1)C(=O)N[C@H](CC1CCCCC1)C(N)=O [SEQ ID NO. 11, (D)Phe-(D)NapAla-(D)Ile-(D)ChAla] (H-[dF][d2Nal][dI][dCha]-NH2; N-terminus and C-terminus assumed) | 86 | 
7 | CCCC[C@@H](N)C(=O)N[C@H](Cc1ccc2ccccc2c1)C(=O)N[C@H](CCCC)C(=O)N[C@H](CCCNC(=N)N)C(N)=O [SEQ ID NO. 18, (D)Nle-(D)NapAla-(D)Nle-(D)Arg] (H-[dNle][d2Nal][dNle][dR]-NH2; N-terminus and C-terminus assumed) |  | 3
8 | CCCC[C@@H](N)C(=O)N[C@H](Cc1ccc2ccccc2c1)C(=O)N[C@H](CCCC)C(=O)N[C@H](CC1CCCCC1)C(N)=O [SEQ ID NO. 19, (D)Nle-(D)NapAla-(D)Nle-(D)ChAla] (H-[dNle][d2Nal][dNle][dCha]-NH2; N-terminus and C-terminus assumed) |  | 6
9 | CCCC[C@@H](N)C(=O)N[C@H](Cc1ccc2ccccc2c1)C(=O)N[C@@H](Cc1c[nH]c2ccccc12)C(=O)N[C@H](CCCNC(=N)N)C(N)=O [SEQ ID NO. 20, (D)Nle-(D)NapAla-Trp-(D)Arg] (H-[dNle][d2Nal]W[dR]-NH2; N-terminus and C-terminus assumed) |  | 743
10 | CCCC[C@@H](N)C(=O)N[C@H](Cc1ccc2ccccc2c1)C(=O)N[C@@H](C(=O)N[C@H](CCCNC(=N)N)C(N)=O)[C@H](C)CC [SEQ ID NO. 21, (D)Nle-(D)NapAla-(D)Ile-(D)Arg] (H-[dNle][d2Nal][dI][dR]-NH2; N-terminus and C-terminus assumed) |  | 2
11 | CCCC[C@@H](N)C(=O)N[C@H](Cc1ccc2ccccc2c1)C(=O)N[C@@H](C(=O)N[C@H](CC1CCCCC1)C(N)=O)[C@H](C)CC [SEQ ID NO. 22, (D)Nle-(D)NapAla-(D)Ile-(D)ChAla] (H-[dNle][d2Nal][dI][dCha]-NH2; N-terminus and C-terminus assumed) |  | 42
